In the supplement of paper PMC3334620:
Over roughly 33,000 sequences, “E-score (-0.5 to 0.5)” has its median near -0.041; the highest 2% begin near 0.37. Some of the results follow.

Target: T1, Ecm22 (UniProt Q05958)
T1 sequence: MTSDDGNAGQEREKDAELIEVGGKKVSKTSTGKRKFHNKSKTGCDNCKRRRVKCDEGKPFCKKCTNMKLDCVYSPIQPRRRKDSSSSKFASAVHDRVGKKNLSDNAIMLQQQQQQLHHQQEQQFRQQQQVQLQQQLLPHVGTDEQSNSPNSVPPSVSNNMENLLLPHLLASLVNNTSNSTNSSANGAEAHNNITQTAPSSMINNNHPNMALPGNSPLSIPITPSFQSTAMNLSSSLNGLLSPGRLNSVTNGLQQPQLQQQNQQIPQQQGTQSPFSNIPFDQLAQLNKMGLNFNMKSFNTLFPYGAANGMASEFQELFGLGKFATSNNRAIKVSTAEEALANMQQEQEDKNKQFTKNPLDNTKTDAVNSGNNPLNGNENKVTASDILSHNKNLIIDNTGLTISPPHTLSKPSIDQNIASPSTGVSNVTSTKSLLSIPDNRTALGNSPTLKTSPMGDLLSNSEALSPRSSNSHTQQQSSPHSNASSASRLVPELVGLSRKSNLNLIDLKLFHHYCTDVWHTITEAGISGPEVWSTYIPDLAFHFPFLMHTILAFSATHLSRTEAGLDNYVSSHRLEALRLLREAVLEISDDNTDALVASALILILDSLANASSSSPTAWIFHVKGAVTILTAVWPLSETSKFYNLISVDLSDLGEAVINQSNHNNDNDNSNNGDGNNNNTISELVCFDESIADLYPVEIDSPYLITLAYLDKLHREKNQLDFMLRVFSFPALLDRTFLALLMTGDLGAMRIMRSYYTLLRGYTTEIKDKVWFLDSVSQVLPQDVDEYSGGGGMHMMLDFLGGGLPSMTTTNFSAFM
Assay: PBM E-score (8-mer binding enrichment) (E-score (-0.5 to 0.5)); higher = stronger / more preferred TF binding; most listed sequences are background and not binding sites
Settings: protein concentration: 200 nM; construct: GST-full length
How it was run: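 Bound GST-tagged yeast transcription factors, applied at about 100-200 nM to double-stranded universal all-10-mer Agilent arrays, were detected with fluorescent anti-GST. Scans were normalised with masliner. A modified Wilcoxon-Mann-Whitney statistic, the E-score, was assigned to each ungapped eight-base word pooled with its reverse complement by the Universal PBM Analysis Suite.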

Row | Sequence | PBM E-score
1 | AACGTCCA | -0.163
2 | AAGATCTA | -0.0485
3 | GACCTTAC | 0.0833
4 | CGTGAATA | 0.0133
5 | CAGGAAGC | -0.0389
6 | GCGTGCAA | 0.0203
7 | AAGCTGGG | -0.271
8 | AGTGCCAC | -0.203
9 | AAAACCGG | -0.0622
10 | AGATGTCC | 0.0385
11 | GAGTAAAA | -0.0405
12 | ACTAAATG | -0.181
13 | GCTGGACA | -0.213
14 | TGGGACCA | -0.27
15 | AGAGCCAA | -0.127
16 | AAAAAACC | -0.126
17 | CTAAGACC | -0.192
18 | CTCCATAA | -0.217
19 | AAGTGCCG | -0.0924
20 | CGCTGAAA | -0.0237
21 | AGCTATAT | 0.0477
22 | GGGCGAGA | -0.171
23 | TCAATTCA | -0.0442
24 | GCCTCCTA | -0.374
25 | CCCTTCCC | -0.234

Row | Sequence | PBM E-score
26 | CCGCGAGG | 0.183
27 | CTCTTCGA | 0.083
28 | AGCGGACG | 0.159
29 | AGTCTCCC | -0.253
30 | GGCAGGAA | -0.144
31 | GTACGGTA | 0.385
32 | ACCAAGAC | -0.0894
33 | ATCCGAAA | 0.195
34 | TAGCCTAA | -0.077
35 | GAGGCGGC | -0.059
36 | ACTGGTGC | -0.021
37 | GTAGGGAC | -0.0987
38 | CATATGAG | -0.123
39 | AGTGCAAG | 0.198
40 | AGCGAGTC | 0.171
41 | ATGGCCTC | -0.109
42 | AACCGAGC | 0.355
43 | GAGAATGC | 0.214
44 | ACAACGCC | -0.0621
45 | TCAATAGA | -0.19
46 | CGGCCGAG | 0.112
47 | CCCCAAGC | 0.0776
48 | CCTAGGGA | -0.25
49 | GAGCGCCC | -0.0895
50 | CACAATTC | -0.0282

Row | Sequence | PBM E-score
51 | TACATAAA | 0.00979
52 | AATACCCG | 0.149
53 | ATCTTCGA | 0.0171
54 | CTGGCAAA | -0.101
55 | GTGCGATA | 0.0925
56 | ATGACTTG | -0.136
57 | ACTATGTA | 0.0343
58 | GAGTGTGC | -0.0597
59 | ATGACTGC | -0.18
60 | TCCTCCAA | -0.118
61 | CTGAACTC | -0.142
62 | GCGTGAAA | 0.0478
63 | ACTCCAAT | -0.106
64 | GCCCACGA | -0.236
65 | CAAGAATG | -0.213
66 | GATAACAC | -0.0205
67 | AGGTATCC | 0.0226
68 | ACATACAC | 0.0438
69 | ATGGTGAC | -0.109
70 | AGGGACTA | -0.28
71 | AATGATGG | 0.0169
72 | CAGAACTC | -0.109
73 | AATTCCCG | 0.0144
74 | CTTCATCA | -0.00655
75 | CGATAGGC | 0.00924

Row | Sequence | PBM E-score
76 | GTGCTGCA | -0.138
77 | GGAGGAAA | -0.0535
78 | GCGTGCGA | 0.203
79 | GCTGACGA | -0.0496
80 | CCCGGAGA | 0.0581
81 | CGTGAAAA | 0.111
82 | ATCAGGGC | -0.0446
83 | AACTTCCT | -0.145
84 | CAGTAGAA | -0.0929
85 | GCGACGCC | 0.12
86 | CGGGTGAC | -0.091
87 | AGAATATG | -0.03
88 | GCCGTCAC | -0.111
89 | CTATTCTA | -0.119
90 | CACAAGGA | -0.144
91 | GTTCGAGA | 0.105
92 | ATAAAGCC | -0.0328
93 | AATTGCGG | -0.0291
94 | ACTGGGGG | -0.145
95 | AACGCCGC | -0.00584
96 | CCCTATAG | -0.169
97 | GTAGTAAC | 0.0981
98 | CGTTTACC | 0.435
99 | GATCCAAC | -0.064
100 | CTGAGCAG | -0.0168

Row | Sequence | PBM E-score
101 | CTTACAAC | -0.053
102 | TTCAAAAA | -0.196
103 | TAAGCTTA | -0.0696
104 | CCATCTGA | -0.0434
105 | CAAGCAAA | -0.119
106 | CACACATC | -0.226
107 | GTCGGACA | 0.176
108 | TGGAGACA | -0.0915
109 | TCAGTTAA | -0.14
110 | ACTGCATG | -0.0787
111 | ACAGCATG | 0.00203
112 | AATAGCCT | -0.138
113 | AGGATATA | -0.0186
114 | GCTTTAGA | -0.098
115 | CCAGTGTA | 0.00327
116 | AACTAATT | 0.00402
117 | CGTCGTTA | 0.374
118 | GCTTTCTA | -0.117
119 | CACACAAG | -0.183
120 | GGCGACCA | -0.221
121 | GTAGAACA | -0.125
122 | GGCTGTTA | -0.167
123 | AAAACTGG | -0.231
124 | ACCTCGCC | 0.0126
125 | ACAGCACT | -0.0402

Row | Sequence | PBM E-score
126 | CGAAGCAC | 0.0797
127 | TATACATA | 0.0372
128 | CGGGACAC | -0.0319
129 | CAATGTTA | -0.156
130 | AAAATAGC | -0.235
131 | ACTTTTTC | -0.0033
132 | CAGCCTCA | -0.00094
133 | CGTGTTGC | 0.111
134 | CGATCGCG | 0.235
135 | AGTAACTG | -0.0945
136 | ACGGACAA | 0.0269
137 | AGCAAACT | 0.0923
138 | CAAGGGGC | -0.346
139 | AAGACGCG | -0.012
140 | ACACAATG | -0.00693
141 | TAATGACA | 0.195
142 | ACATCCGA | 0.125
143 | CGGTTCTC | 0.0952
144 | CCGCTACG | 0.339
145 | ACCTGTTG | -0.071
146 | GAGGCACC | -0.207
147 | ACGACTTC | 0.297
148 | ATATTCAC | -0.0641
149 | GGCGTACA | 0.16
150 | CCACGTCC | -0.274

Row | Sequence | PBM E-score
151 | CACTTATC | 0.0583
152 | ACTGGTAG | -0.235
153 | CAATTTAA | -0.0586
154 | CTGGGCAA | -0.15
155 | GACCTGGC | -0.3
156 | GGGATAGA | -0.175
157 | GATGTGCC | -0.139
158 | AACATGGA | -0.242
159 | AAGAAGAC | -0.0845
160 | CCCGATCA | 0.197
161 | AACCCACA | 0.0295
162 | CAGAATTC | -0.0961
163 | GGACCGAC | 0.302
164 | CACAGTGG | -0.0782
165 | AGATAGCC | -0.113
166 | ATCTTCTG | -0.0378
167 | CGCAGACC | -0.029
168 | CCCGACGC | -0.113
169 | AGTAACGG | 0.0561
170 | CGGCCCTC | -0.162
171 | GGGATCAC | -0.169
172 | AGGAGTAT | -0.109
